Test results from PubChem BioAssay AID1347073 (National Center for Advancing Translational Sciences (NCATS), 2019).
The campaign covered roughly 45,000 compounds. About 200 (0.44%) were called active. Not shown: some 7% with an inconclusive outcome. Calls come from the whole dose curve; as a rule, active = well fitted activation curve with a large enough effect; inconclusive = small, poorly fitted or top-dose-only effect; inactive = no such curve, though single readings can be large or run the other way. The list shows a part of the results.

Experiment: qHTS of TDP-43 Inhibitors: NCGC Sytravon Library Screen; note: 0% is about no effect; nearly all actives have a fitted effect of over 55% in size
Details: yeast TDP-43 toxicity rescue, BacTiter-Glo growth, 24 h; series mostly up to 46.1 µM; growth rescue (activation): at the top concentration
How it was run: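 TDP-43-expressing yeast, pregrown in raffinose, seeded at OD600 0.02 in galactose medium with compound for 24 hr at 30 deg C. Growth read by BacTiter-Glo luminescence, so rescue of toxicity appears as activation.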
In the case of `CN1CCN(C2=Nc3c(Cl)cc(Cl)c4cccc2c34)CC1`, the “growth rescue (activation)” value was inactive: -18.4%. With `COc1ccc(C(=O)NCCN2C(=O)S/C(=C\c3cccnc3)C2=O)cc1[N+](=O)[O-]` the “growth rescue (activation)” value was inactive: 3.56%. For `O=C(Nc1ccc(NC(=O)c2cccs2)cc1)c1ccc2ccccc2c1`, the “growth rescue (activation)” value was inactive: 6.22%. With `CCC(=O)N(Cc1cc(=O)[nH]c2ccccc12)c1ccc(C)cc1` the “growth rescue (activation)” value was inactive: -12.7%. In the case of `COc1ccc(NC(=O)CO/N=C(\C)c2cccs2)cc1`, the “growth rescue (activation)” value was inactive: 18.7%. For `O=C1CCC(C(=O)Nc2cccc(S(=O)(=O)Nc3ccccc3F)c2)=NN1`, the “growth rescue (activation)” value was inactive: -3.84%. For `O=C(NNC(=O)c1ccccc1Cl)c1ccco1`, the “growth rescue (activation)” value was inactive: 0.53%. With `COc1ccc(C(C)=NNc2ccc([N+](=O)[O-])cc2S(=O)(=O)Nc2ccccc2C(=O)O)c(OC)c1` the “growth rescue (activation)” value was inactive: 23.3%. In the case of `CCN1CCN(CC(=O)N2N=CCC2c2ccccc2)CC1` (centres undefined), the “growth rescue (activation)” value was inactive: -11.1%. For `COc1ccc(NC(=O)c2cc(-c3cccs3)on2)c(OC)c1`, the “growth rescue (activation)” value was inactive: -9.74%. For `COC(=O)c1ccc(C(=O)OC)c(NC(=O)CN2CCCCC2)c1`, the “growth rescue (activation)” value was inactive: -3.38%. In the case of `CC(C)CNS(=O)(=O)c1ccc(C(=O)Nc2ccc3c(c2)OCO3)cc1`, the “growth rescue (activation)” value was inactive: 11.4%. In the case of `CCN(C(=O)CSc1nnc(NCc2ccccc2)s1)C1CCS(=O)(=O)C1` (centres undefined), the “growth rescue (activation)” value was inactive: -2.5%. For `Cc1ccc(-c2cc(N)on2)cc1`, the “growth rescue (activation)” value was inactive: 14.2%. In the case of `CCOC(=O)c1cnc2ccc(C(=O)OC)cc2c1Nc1ccc(C(=O)O)cc1`, the “growth rescue (activation)” value was inactive: -2.13%. In the case of `Cc1onc(-c2ccccc2Cl)c1C(=O)N1CCCCC1C` (centres undefined), the “growth rescue (activation)” value was inactive: -12%. With `Cn1c(N)c(C(=O)COC(=O)c2ccccc2C(=O)c2ccc(Cl)cc2)c(=O)n(C)c1=O` the “growth rescue (activation)” value was inactive: 7.59%. With `Cc1cc(C)c[n+](-c2nc3ccccc3nc2[N-]S(=O)(=O)c2ccc(Br)s2)c1` the “growth rescue (activation)” value was inactive: -5.46%. With `Cn1c2ccccc2c2nnc(SCC(=O)NC3CCCC3)nc21` the “growth rescue (activation)” value was inactive: 1.22%. With `Cc1nc2nc[nH]n2c(=O)c1CCOC(=O)c1ccccc1F` the “growth rescue (activation)” value was inactive: -4.54%. For `CC(=O)c1cccc(N2C(=O)CC(N3CCN(S(=O)(=O)c4ccccc4F)CC3)C2=O)c1` (centres undefined), the “growth rescue (activation)” value was inactive: 10.2%. With `CC(C)CNc1ncnc2c1sc1nc(N3CCOCC3)c3c(c12)CC(C)(C)OC3` the “growth rescue (activation)” value was inactive: 25.8%. In the case of `CS(=O)(=O)c1cccc(C(=O)Nc2ccccc2Cc2ccccc2)c1`, the “growth rescue (activation)” value was inactive: 15.3%. With `CCN(CC)CCCNC(=O)c1cc(-c2ccc3c(c2)OCO3)on1` the “growth rescue (activation)” value was inactive: -2.51%. For `O=C(c1ccco1)N1CCN(C(=O)c2cn(-c3ccccc3)nc2-c2ccc(F)cc2)CC1`, the “growth rescue (activation)” value was inactive: 3.97%. In the case of `CCC(C)NCC(=O)Nc1cc(S(=O)(=O)N(CC)c2ccccc2)ccc1Cl` (centres undefined), the “growth rescue (activation)” value was inactive: 0.221%. For `COc1cc(C(=O)OCC(=O)Nc2ccc(C(C)=O)cc2)ccc1OCC(=O)N1CCOCC1`, the “growth rescue (activation)” value was inactive: 14.2%. In the case of `CCC1(CC)Nc2ccccc2C(=O)N1c1ccc(NC(C)=O)cc1`, the “growth rescue (activation)” value was inactive: 8.01%. In the case of `Cc1ccc(-c2csc(NC(=O)c3ccccc3Cl)c2C(=O)O)cc1`, the “growth rescue (activation)” value was inactive: -24.3%.
